In a collection of fitness landscapes (doi:10.1126/science.1257360):
This is one part of the list.

B1: PhoQ; a variant is named by its letters at X, in order, P23837 (parent)
chain: MKKLLRLFFPLSLRVRFLLATAAVVLVLSLAYGMVALIGYSVSFDKTTFRLLRGESNLFYTLAKWENNKLHVELPENIDKQSPTMTLIYDENGQLLWAQRDVPWLMKMIQPDWLKSNGFHEIEADVNDTSLLLSGDHSIQQQLQEVREDDDDAEMTHSVAVNVYPATSRMPKLTIVVVDTIPVELKSSYMVWSWFIYVLSANLLLVIPLLWVAAWWSLRPIEALAKEVRELEEHNRELLNPATTRELTSLVRNLNRLLKSERERYDKYRTTLTDLTHSLKTPLXXLQXXLRSLRSEKMSVSDAEPVMLEQISRISQQIGYYLHRASMRGGTLLSRELHPVAPLLDNLTSALNKVYQRKGVNISLDISPEISFVGEQNDFVEVMGNVLDNACKYCLEFVEISARQTDEHLYIVVEDDGPGIPLSKREVIFDRGQRVDTLRPGQGVGLAVAREITEQYEGKIVAGESMLGGARMEVIFGRQHSAPKDE

Variants of: B1
Assay: enrichment ratio after two sorts for PhoP signalling (ratio (wild type AVST 3.29)); higher = more functional
Settings: with PhoP (E. coli)
With GYIG the enrichment ratio was at most 0.25.
Variant NFHN has an enrichment ratio of at most 0.25.
Variant WQSG has an enrichment ratio of at most 0.25.
EDFQ showed an enrichment ratio of at most 0.25.
DYIT was tested, and the enrichment ratio was at most 0.25.
Work on KQSI yielded an enrichment ratio of at most 0.25.
SRHM gave an enrichment ratio of at most 0.25.
Variant PQVL has an enrichment ratio of at most 0.25.
With LSGK the enrichment ratio was at most 0.25.
VWCM showed an enrichment ratio of at most 0.25.
In the case of TVFP, the enrichment ratio is reported as at most 0.25.
For KNSQ, the enrichment ratio was at most 0.25.
IHYQ gave an enrichment ratio of at most 0.25.
With DTQM the enrichment ratio was at most 0.25.
HLIW showed an enrichment ratio of at most 0.25.
KREL was tested, and the enrichment ratio was at most 0.25.
Variant QRYS has an enrichment ratio of at most 0.25.
Work on LRKP yielded an enrichment ratio of at most 0.25.
EYYM was tested, and the enrichment ratio was at most 0.25.
Work on ELMW yielded an enrichment ratio of at most 0.25.
Work on TWPP yielded an enrichment ratio of at most 0.25.
GLPQ gave an enrichment ratio of at most 0.25.
CIFA gave an enrichment ratio of at most 0.25.
STHD was tested, and the enrichment ratio was at most 0.25.
SDQW was tested, and the enrichment ratio was at most 0.25.
In the case of MGAA, the enrichment ratio is reported as 6.5.
VWRG was tested, and the enrichment ratio was at most 0.25.
VGQH gave an enrichment ratio of at most 0.25.
For YNNY, the enrichment ratio was at most 0.25.
For GLKY, the enrichment ratio was at most 0.25.
For LAGQ, the enrichment ratio was at most 0.25.
In the case of HNAV, the enrichment ratio is reported as at most 0.25.
DNMH gave an enrichment ratio of at most 0.25.
With EMDW the enrichment ratio was at most 0.25.
With SQCT the enrichment ratio was 10.1.
TTFW was tested, and the enrichment ratio was at most 0.25.
With DVMF the enrichment ratio was at most 0.25.
PLSM showed an enrichment ratio of at most 0.25.
Work on MLRQ yielded an enrichment ratio of at most 0.25.
IHKH showed an enrichment ratio of at most 0.25.
Work on HFWF yielded an enrichment ratio of at most 0.25.
WNYN gave an enrichment ratio of at most 0.25.
Variant LYNV has an enrichment ratio of at most 0.25.
WYTG was tested, and the enrichment ratio was at most 0.25.
For AHDM, the enrichment ratio was at most 0.25.
In the case of RKVC, the enrichment ratio is reported as at most 0.25.
Variant LSTL has an enrichment ratio of at most 0.25.
In the case of WQTF, the enrichment ratio is reported as at most 0.25.
SQPL was tested, and the enrichment ratio was at most 0.25.
With TCVY the enrichment ratio was at most 0.25.
FDLH gave an enrichment ratio of at most 0.25.
PNLT gave an enrichment ratio of at most 0.25.
TQII showed an enrichment ratio of 15.7.
Work on YTGG yielded an enrichment ratio of at most 0.25.
With DNPM the enrichment ratio was at most 0.25.
With YLPN the enrichment ratio was at most 0.25.
ECYN was tested, and the enrichment ratio was 0.622.
VLRK was tested, and the enrichment ratio was at most 0.25.
IGVV showed an enrichment ratio of at most 0.25.
Work on WKNL yielded an enrichment ratio of at most 0.25.
VFSR was tested, and the enrichment ratio was at most 0.25.
FHYP was tested, and the enrichment ratio was at most 0.25.
With KGMF the enrichment ratio was at most 0.25.
ECIW was tested, and the enrichment ratio was at most 0.25.
In the case of ESNL, the enrichment ratio is reported as at most 0.25.
Variant GQME has an enrichment ratio of 6.91.
ICTV gave an enrichment ratio of at most 0.25.
In the case of AQYH, the enrichment ratio is reported as at most 0.25.
In the case of EHCS, the enrichment ratio is reported as at most 0.25.
For QYGD, the enrichment ratio was at most 0.25.
For GTVF, the enrichment ratio was 5.57.
VLLW gave an enrichment ratio of at most 0.25.
Variant WYQF has an enrichment ratio of at most 0.25.
For QQFC, the enrichment ratio was 5.39.
Work on WKLI yielded an enrichment ratio of at most 0.25.
NLQL gave an enrichment ratio of at most 0.25.
Variant THTS has an enrichment ratio of 1.63.
YPIT gave an enrichment ratio of at most 0.25.
For WYTR, the enrichment ratio was at most 0.25.
Variant RSYK has an enrichment ratio of at most 0.25.
EDFY was tested, and the enrichment ratio was at most 0.25.
With YHTH the enrichment ratio was at most 0.25.
In the case of GWYL, the enrichment ratio is reported as at most 0.25.
NPYF gave an enrichment ratio of at most 0.25.
